# Measured values reported in the supplement of paper PMC8728848.
# The list shows a part of the results.
# Key:
# Experiment in all cases: glycan array binding signal (z-score within array); higher = stronger binding
# Settings in all cases: glycan notation: IUPAC condensed, linker removed
# [1] = molecular target: Neu5Ac(a2-6)Gal(b1-4)GlcNAc(b1-2)Man(a1-3)Man(b1-4)GlcNAc(b1-4)GlcNAc
# Outline: (§1)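 The binding signal is a Z-score computed within each array and averaged over linkers. Arrays of the same protein sequence at different concentrations or buffers were also averaged together. Data originate from 3228 arrays in the Consortium for Functional Glycomics database, kept only where the protein sequence was available.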
# [2] = molecular target: Neu5Ac(a2-6)Gal(b1-4)GlcNAc(b1-2)Man(a1-3)[Gal(b1-4)GlcNAc(b1-2)Man(a1-6)]Man(b1-4)GlcNAc(b1-4)GlcNAc
# Outline: as §1
# [3] = molecular target: Neu5Ac(a2-6)Gal(b1-4)GlcNAc(b1-2)Man(a1-3)[GlcNAc(b1-2)Man(a1-6)]Man(b1-4)GlcNAc(b1-4)GlcNAc
# Outline: as §1
# [4] = molecular target: Neu5Ac(a2-6)Gal(b1-4)GlcNAc(b1-2)Man(a1-3)[GlcNAc(b1-2)Man(b1-4)GlcNAc(b1-2)Man(a1-6)]Man(b1-4)GlcNAc(b1-4)GlcNAc
# Outline: as §1
# [5] = molecular target: Neu5Ac(a2-6)Gal(b1-4)GlcNAc(b1-2)Man(a1-3)[Man(a1-6)]Man(b1-4)GlcNAc(b1-4)GlcNAc
# Outline: as §1
# [6] = molecular target: Neu5Ac(a2-6)Gal(b1-4)GlcNAc(b1-2)Man(a1-3)[Neu5Ac(a2-6)Gal(b1-4)GlcNAc(b1-2)Man(a1-6)]Man(b1-4)GlcNAc(b1-4)GlcNAc
# Outline: as §1
# [7] = molecular target: Neu5Ac(a2-6)Gal(b1-4)GlcNAc(b1-2)Man(a1-6)Man(b1-4)GlcNAc(b1-4)GlcNAc
# Outline: as §1
# [8] = molecular target: Neu5Ac(a2-6)Gal(b1-4)GlcNAc(b1-2)Man(a1-6)[Gal(b1-4)GlcNAc(b1-2)Man(a1-3)]Man(b1-4)GlcNAc(b1-4)GlcNAc
# Outline: as §1
# [9] = molecular target: Neu5Ac(a2-6)Gal(b1-4)GlcNAc(b1-2)Man(a1-6)[GlcNAc(b1-2)Man(a1-3)]Man(b1-4)GlcNAc(b1-4)GlcNAc
# Outline: as §1
# [10] = molecular target: Neu5Ac(a2-6)Gal(b1-4)GlcNAc(b1-2)Man(a1-6)[Man(a1-3)]Man(b1-4)GlcNAc(b1-4)GlcNAc
# Outline: as §1
# [11] = molecular target: Neu5Ac(a2-6)Gal(b1-4)GlcNAc(b1-3)Gal(b1-3)GlcNAc
# Outline: as §1
# [12] = molecular target: Neu5Ac(a2-6)Gal(b1-4)GlcNAc(b1-3)Gal(b1-4)GlcNAc
# Outline: as §1
# [13] = molecular target: Neu5Ac(a2-6)Gal(b1-4)GlcNAc(b1-3)Gal(b1-4)GlcNAc(b1-3)Gal(b1-4)GlcNAc
# Outline: as §1
# [14] = molecular target: Neu5Ac(a2-6)Gal(b1-4)GlcNAc(b1-3)Gal(b1-4)[Fuc(a1-3)]GlcNAc(b1-3)Gal(b1-4)[Fuc(a1-3)]GlcNAc
# Outline: as §1
# [15] = molecular target: Neu5Ac(a2-6)Gal(b1-4)GlcNAc(b1-3)GalNAc
# Outline: as §1
# [16] = molecular target: Neu5Ac(a2-6)Gal(b1-4)GlcNAc6S
# Outline: as §1
# [17] = molecular target: Neu5Ac(a2-6)GalNAc
# Outline: as §1
# [18] = molecular target: Neu5Ac(a2-6)GalNAc(b1-4)GlcNAc
# Outline: as §1
# [19] = molecular target: Neu5Ac(a2-6)GlcNAc(b1-4)GlcNAc
# Outline: as §1
# [20] = molecular target: Neu5Ac(a2-6)GlcNAc(b1-4)GlcNAc(b1-4)GlcNAc
# Outline: as §1
# [21] = molecular target: Neu5Ac(a2-8)Neu5Ac
# Outline: as §1
# [22] = molecular target: Neu5Ac(a2-8)Neu5Ac(a2-3)Gal(b1-4)Glc
# Outline: as §1
# [23] = molecular target: Neu5Ac(a2-8)Neu5Ac(a2-3)[GalNAc(b1-4)]Gal(b1-4)Glc
# Outline: as §1
# [24] = molecular target: Neu5Ac(a2-8)Neu5Ac(a2-8)Neu5Ac
# Outline: as §1
# [25] = molecular target: Neu5Ac(a2-8)Neu5Ac(a2-8)Neu5Ac(a2-3)Gal(b1-4)Glc
# Outline: as §1
# [26] = molecular target: Neu5Ac(a2-8)Neu5Ac(a2-8)Neu5Ac(a2-3)[GalNAc(b1-4)]Gal(b1-4)Glc
# Outline: as §1
# [27] = molecular target: Neu5Ac(a2-8)Neu5Ac(a2-8)Neu5Ac(a2-8)Neu5Ac(a2-3)[GalNAc(b1-4)]Gal(b1-4)Glc
# Outline: as §1
# [28] = molecular target: Neu5Ac(b2-6)Gal(b1-4)GlcNAc
# Outline: as §1
# [29] = molecular target: Neu5Ac(b2-6)GalNAc
# Outline: as §1
# [30] = molecular target: Neu5Ac9Ac(a2-3)Gal(b1-3)GlcNAc
# Outline: as §1
# [31] = molecular target: Neu5Ac9Ac(a2-3)Gal(b1-4)GlcNAc
# Outline: as §1
# [32] = molecular target: Neu5Ac9Ac(a2-6)Gal(b1-4)GlcNAc
# Outline: as §1
# [33] = molecular target: Neu5Gc(a2-3)Gal(b1-3)GlcNAc
# Outline: as §1
# [34] = molecular target: Neu5Gc(a2-3)Gal(b1-3)[Fuc(a1-4)]GlcNAc
# Outline: as §1
# [35] = molecular target: Neu5Gc(a2-3)Gal(b1-4)Glc
# Outline: as §1
# [36] = molecular target: Neu5Gc(a2-3)Gal(b1-4)GlcNAc
# Outline: as §1
# [37] = molecular target: Neu5Gc(a2-3)Gal(b1-4)[Fuc(a1-3)]GlcNAc
# Outline: as §1
# [38] = molecular target: Neu5Gc(a2-6)Gal(b1-4)GlcNAc
# Outline: as §1
# [39] = molecular target: Neu5Gc(a2-6)GalNAc
# Outline: as §1
# [40] = molecular target: Neu5Gc(b2-6)Gal(b1-4)GlcNAc
# Outline: as §1
binder,measurement,setting,value
"Galatrox (Botrops atrox), P0DM53 (protein) NNCPQDWLPMNGLCYKIFDELKAWKDAEMFCRKYKPGCHLASIILYGESPEWAEGHSEVWLGLWDKKKDFSWEWTDR",glycan array binding signal (z-score),[1],0.146
same,glycan array binding signal (z-score),[2],0.4
same,glycan array binding signal (z-score),[3],-0.355
same,glycan array binding signal (z-score),[4],-0.348
same,glycan array binding signal (z-score),[5],-0.301
same,glycan array binding signal (z-score),[6],-0.076
same,glycan array binding signal (z-score),[7],-0.368
same,glycan array binding signal (z-score),[8],0.771
same,glycan array binding signal (z-score),[9],-0.303
same,glycan array binding signal (z-score),[10],-0.323
same,glycan array binding signal (z-score),[11],-0.288
same,glycan array binding signal (z-score),[12],-0.357
same,glycan array binding signal (z-score),[13],-0.297
same,glycan array binding signal (z-score),[14],0.033
same,glycan array binding signal (z-score),[15],-0.275
same,glycan array binding signal (z-score),[16],-0.244
same,glycan array binding signal (z-score),[17],-0.362
same,glycan array binding signal (z-score),[18],-0.376
same,glycan array binding signal (z-score),[19],-0.269
same,glycan array binding signal (z-score),[20],-0.363
same,glycan array binding signal (z-score),[21],-0.357
same,glycan array binding signal (z-score),[22],-0.365
same,glycan array binding signal (z-score),[23],-0.197
same,glycan array binding signal (z-score),[24],-0.36
same,glycan array binding signal (z-score),[25],-0.366
same,glycan array binding signal (z-score),[26],-0.343
same,glycan array binding signal (z-score),[27],-0.313
same,glycan array binding signal (z-score),[28],-0.369
same,glycan array binding signal (z-score),[29],-0.367
same,glycan array binding signal (z-score),[30],-0.374
same,glycan array binding signal (z-score),[31],-0.371
same,glycan array binding signal (z-score),[32],-0.323
same,glycan array binding signal (z-score),[33],-0.368
same,glycan array binding signal (z-score),[34],-0.369
same,glycan array binding signal (z-score),[35],-0.369
same,glycan array binding signal (z-score),[36],-0.362
same,glycan array binding signal (z-score),[37],-0.36
same,glycan array binding signal (z-score),[38],-0.367
same,glycan array binding signal (z-score),[39],-0.372
same,glycan array binding signal (z-score),[40],-0.341
